SMILES strings stand for the structures. Among all 150,000 compounds or so, about 540 (0.36%) showed an effect of 50% or more. This is one part of the list.

The test relates to Plasmodium falciparum. As to the kind of experiment: Primary screen in NF54 nanoGlo assay, in single point, at 2uM, 72h; a lower Z score goes with more inhibition. Type of test: functional, Erythrocyte. The conditions noted are these: timepoint 72 hour.
For orientation: % Inhibition means the drop in the measured response relative to a control, in per cent. As to `C=CCO[C@H]1[C@H](NC(=O)COC)c2ccccc2C12CCN(Cc1ccc(F)cc1Cl)CC2`, the “% Inhibition” value came out at 11% and the Z score is given as -1.48.
In the case of `Cc1cnc(CCNC(=O)N[C@@H]2COc3ccc(F)cc3C2)c(C)c1`, the “% Inhibition” value is given as 22% and the Z score is reported as -2.81.
Taken in the same sequence, the figures for `COCc1ncc(CN2CCC[C@H]2c2nc3c(C)cccc3[nH]2)cn1` were -3% and 0.57.
Taken in the same sequence, the figures for `N=C1C(c2nc3ccccc3s2)=C(O)CN1CC1CCOCC1` were -6% and 0.73.
Take `Cc1ccncc1C(=O)N1CCC[C@@H]1CF`: the “% Inhibition” value is -7% and the Z score is reported as 0.81.
For `CCc1nc(NC(=O)NCc2nccs2)nn1C`, the “% Inhibition” value was determined as 1% and the Z score is on record as -0.19.
On to `C[C@H]1CCCCN1c1ccc(C(N)=O)cc1NC(=O)CCCn1cncn1`, for which the “% Inhibition” value was -17% and the Z score is given as 1.48.
Turning to `CC(C)[C@@H]1CN(Cc2ccc(O)cc2)CCCN1CC1CC1`, the “% Inhibition” value is given as -2% and the Z score is on record as 0.34.
In the same order, the values of `CC(C)C(NCC(O)c1ccco1)c1ccc2c(c1)CCO2` (centres undefined) are 4% and -0.68.
For the compound `CNC(=O)[C@@H]1C[C@H](NCc2cc(OC)c(OC)c(OC)c2)CN1CC(c1ccccc1)c1ccccc1`, the “% Inhibition” value was found to be 54% and the Z score is recorded as -11.4.
In the same order, the values of `Cc1ncnc(N(C)Cc2ncc(Br)cn2)c1C` are -3% and 0.47.
Take `COCCc1cc(NC(=O)N2CC(C)C3CCCCC32)n(C)n1` (centres undefined): the “% Inhibition” value is reported as -10% and the Z score is given as 1.26.
In the same order, the values of `c1cc(-c2nc(-c3ccc4c(c3)OCCO4)cs2)cs1` are -9% and 0.73.
In the same order, the values of `CCc1nnc(-c2nnc(NCc3ccc4c(c3)OCO4)c3ccccc23)o1` are 1% and -0.15.
For `CC(C)CN1CCN(Cc2cn(C)nc2-c2cccc(Cl)c2)[C@@H](C)C1=O`, the “% Inhibition” value is 10% and the Z score was -1.31.
In the same order, the values of `Cc1ccc(C)c(C2CCN(C(=O)Nc3cccn(C)c3=O)CC2)c1` are -10% and 1.54.
In the same order, the values of `O=C(c1cnccn1)N1CC[C@@H]2CN(Cc3ccccc3)[C@@H]2C1` are -10% and 1.19.
In the same order, the values of `Cc1cccc(Cn2c(=O)c(C(=O)N3CCOCC3)nn(-c3ccc(F)cc3)c2=O)c1` are 1% and -0.14.
On to `Cc1nc(C)c(CNC(=O)[C@H]2CCOC2)o1`, for which the “% Inhibition” value is 23% and the Z score is -2.62.
Taken in the same sequence, the figures for `Cn1c(N2CCC[C@H]2C2CCCC2)c(C#N)c(=O)n(C)c1=O` were -3% and 0.42.
Taken in the same sequence, the figures for `Cc1cccc(-c2ccc(C(=O)NCCN3CCOCC3)n2C)c1` were -7% and 1.19.
Regarding `Cc1nn(C)cc1-c1cc(-c2cn(C)nc2C)[nH]n1`, the “% Inhibition” value is recorded as -3% and the Z score was 0.41.
Taken in the same sequence, the figures for `CC(C)NC(=O)CN1C[C@H](O)C[C@H]1c1n[nH]c(-c2ccccc2)n1` were 0% and -0.04.
For the compound `O=C(Nc1cccc(-c2nnco2)c1)c1cccc(Cl)c1`, the “% Inhibition” value is on record as -18% and the Z score was 2.95.
In the same order, the values of `Cc1nc2ccccc2n1CCNc1ncc(C#N)cc1Cl` are -12% and 1.4.
For the compound `CCC(C)N(CC(=O)N1CCc2sccc2C1c1ccc(C(C)(C)C)cc1)C(=O)c1ccc(-c2ccccc2)cc1` (centres undefined), the “% Inhibition” value is given as -7% and the Z score was 0.74.
Turning to `CN(C)C(=O)c1cccc(Br)c1Cl`, the “% Inhibition” value is on record as -18% and the Z score was determined as 2.57.
As for `CCc1ccc(CN2CCC(n3nccc3NC(C)=O)CC2)o1`, the “% Inhibition” value is on record as -20% and the Z score is on record as 1.75.
Turning to `COc1cccc(C(=O)NCC(=O)N2CCCN(Cc3noc(C)n3)CC2)c1`, the “% Inhibition” value is listed as -10% and the Z score came to 1.66.
With `O=C(Nc1ccc2c(c1)OCO2)N1CCC(c2nnc(-c3ccco3)o2)CC1`, the “% Inhibition” value is -9% and the Z score is reported as 1.62.
With `Cc1nnc(CN2CC[C@](C)(O)[C@H](C)C2)n1C`, the “% Inhibition” value is -5% and the Z score came to 0.45.
Consider `C=CCN(Cc1ccc(F)cc1)Cc1cc(C)nn1C`, for which the “% Inhibition” value is given as -3% and the Z score stood at 0.42.
Taken in the same sequence, the figures for `CC(=O)N1CC(C(=O)Nc2cccnc2)C1` were -2% and 0.23.
As for `O=C(O)c1cccc(C(=O)N2CCC(c3ccsc3)CC2)c1`, the “% Inhibition” value is given as -12% and the Z score was 1.53.
In the same order, the values of `O=C(CNS(=O)(=O)c1ccccc1)NCc1ccco1` are 1% and -0.13.
In the same order, the values of `N#Cc1ccc(N2CCC[C@H]2C(=O)NC2CC2)c(Br)c1` are -19% and 2.96.
Taken in the same sequence, the figures for `C[C@H]1CC=CC[C@@H]1NC(=O)c1cnn2ccc(N)cc12` were 0% and -0.01.
As for `Oc1ccc(-c2nc(-c3ccc4c(c3)OCCCO4)cs2)cc1`, the “% Inhibition” value is reported as -9% and the Z score is 1.35.
In the same order, the values of `N#CCC(=O)NC1CC1(F)c1ccccc1` (centres undefined) are -9% and 0.86.
In the same order, the values of `CCC1CCCCC1N(C)c1ccc(C#N)cn1` (centres undefined) are 2% and -0.29.
As to `CC(C)(C)[C@@H]1CNC(=O)CN1S(=O)(=O)c1cnc2ccccc2c1`, the “% Inhibition” value is -14% and the Z score came out at 1.64.
In the same order, the values of `CCOc1ccc(-c2c[nH]c(C(=O)N3CCCCC3)c2)cc1` are -10% and 1.47.
Taken in the same sequence, the figures for `COc1ccc(S(=O)(=O)N2CCOCC2)cc1NC(=O)CCCOc1ccccc1` were -6% and 0.93.
`CCc1ccc(S(=O)(=O)n2c(=O)n(S(=O)(=O)c3ccc(CC)cc3)c3ccccc32)cc1`: the “% Inhibition” value is -8% and the Z score worked out at 1.09.
For the compound `O=C(CCCc1ccccc1)Nc1nccs1`, the “% Inhibition” value is given as -17% and the Z score is recorded as 1.99.
Regarding `COc1ccc(CN2CCC3(CC2)CCN(C(=O)C(C)C)CC3)cc1C`, the “% Inhibition” value stood at 2% and the Z score is -0.3.
`Cn1ncc(C(=O)N2CCN(c3ccccc3)CC2)c1C1CCN(C(=O)OC(C)(C)C)CC1`: the “% Inhibition” value was -14% and the Z score turned out to be 2.16.
On to `CC[C@H](NCC(=O)NC(C)C)c1cccc(Cl)c1`, for which the “% Inhibition” value is on record as -7% and the Z score was determined as 1.01.
Take `CC(C)(C)c1nc(CN2CC[C@H](c3ccccc3)C2)no1`: the “% Inhibition” value is -6% and the Z score is reported as 0.78.
In the case of `c1cc2cn[nH]c2cc1CN1CCc2[nH]ncc2C1`, the “% Inhibition” value is listed as -2% and the Z score is given as 0.3.
For the compound `c1cc(-c2nc(C3CCCCC3)no2)cc(-c2ncc[nH]2)n1`, the “% Inhibition” value is -28% and the Z score was found to be 4.45.
For the compound `O=C(Nc1cccc(F)c1)N(Cc1ccco1)C[C@H]1CCCO1`, the “% Inhibition” value is -10% and the Z score was found to be 1.55.
Taken in the same sequence, the figures for `CCn1cnnc1CN(C)c1ncc(C)c(-c2ncnn2C)n1` were 2% and -0.34.
In the same order, the values of `O=C(CCC1CCCCC1)N1CCN(C(=O)[C@@H]2CCCc3cccnc32)CC1` are 0% and 0.
In the same order, the values of `CC(=Cc1cc(F)c(F)cc1F)c1cnccn1` are -3% and 0.35.
On to `CC[C@H](NC(=O)c1sccc1Cl)C1CCOCC1`, for which the “% Inhibition” value stood at 0% and the Z score is on record as -0.01.
`CC(C)C1OCCCC1CNC(=O)Nc1ccc[n+]([O-])c1` (centres undefined): the “% Inhibition” value is reported as -10% and the Z score was determined as 1.72.
In the same order, the values of `CONC(=O)C1CC=CCC1c1nc2ccccc2s1` (centres undefined) are 3% and -0.54.
Taken in the same sequence, the figures for `CCc1cccc(NC(=O)CN2CCn3nnc(-c4nc(-c5ccsc5)no4)c3C2=O)c1` were -12% and 1.31.
Turning to `CC1CC1c1ccc(CNCc2ccncc2)o1` (centres undefined), the “% Inhibition” value is 2% and the Z score is -0.31.
Taken in the same sequence, the figures for `CCC1(CC)CN(C(=O)CC2CCCCCC2)CCS1(=O)=O` were -6% and 0.93.
As to `O=C(c1ccc2nc(-c3ccc(F)cc3)cn2c1)N1CCCC[C@@H]1CCO`, the “% Inhibition” value is -20% and the Z score is listed as 2.16.
For `Cc1ccnc(OCC(=O)Nc2ccccc2C)n1`, the “% Inhibition” value came out at 9% and the Z score is -1.29.
On to `CN1CCN(c2cnn(CCOc3ccccc3)c(=O)c2)CC1`, for which the “% Inhibition” value is recorded as -12% and the Z score was 1.33.
`Cn1ncc(COc2cccc(N3CCCC3)c2)c1C(F)(F)F`: the “% Inhibition” value is -4% and the Z score is reported as 0.39.
In the same order, the values of `Cc1nc(C(=O)N(C)Cc2snnc2C)cs1` are -10% and 1.83.
Taken in the same sequence, the figures for `Cc1cccc(NC(=O)N2CCC(Cc3nccn3C)CC2)n1` were -6% and 0.6.
Consider `Cc1cc(-c2cc(O)c3c(c2)CN(Cc2cnn(C)c2C)CCO3)nc2cc(F)ccc12`, for which the “% Inhibition” value was -5% and the Z score was 0.62.
Turning to `Cc1nn(Cc2cn(C3CCC(C)C3)nn2)c(C)c1C` (centres undefined), the “% Inhibition” value was -8% and the Z score is given as 1.16.
In the case of `O=C(c1cccnc1)N1CCO[C@@H](Cn2cccn2)C1`, the “% Inhibition” value is -3% and the Z score was found to be 0.5.
In the same order, the values of `Cn1cc(C2CCCCN2CCOC2CCCCO2)cn1` (centres undefined) are 6% and -0.81.
Taken in the same sequence, the figures for `O=C1OCCN1c1cccc(C2OCCCO2)c1` were -4% and 0.62.
As to `COc1ccc(CN2CCCN(Cc3ccc(OC)cc3)C2c2cc(Cl)cc(Cl)c2O)cc1`, the “% Inhibition” value is on record as -7% and the Z score turned out to be 0.78.
Take `Cc1scc2nc(C3CCC3)nc(N3CCC(C(=O)NCc4ccccc4)CC3)c12`: the “% Inhibition” value stood at 7% and the Z score was -1.15.
`CN1C[C@@H](C(=O)N2CCC(CNC(=O)C3CCC3)CC2)Oc2ccccc21`: the “% Inhibition” value is given as -17% and the Z score was 1.66.
Regarding `N#Cc1ccc(CON=C(N)c2ccc(OCc3cccnc3)cc2)cc1`, the “% Inhibition” value was -3% and the Z score worked out at 0.27.
In the same order, the values of `Cc1ccc(C(=O)NS(=O)(=O)[C@@H](C)C(F)(F)F)c(F)c1` are 4% and -0.71.
In the same order, the values of `Cc1cnc(CC[C@H]2CCCN2C(=O)CCCc2ccccc2)n1C` are 34% and -4.61.
For `O=C(CCCn1cncn1)N[C@H]1CN(C(=O)c2ccccc2F)C[C@@H]1C1CC1`, the “% Inhibition” value is given as -2% and the Z score is 0.29.
In the same order, the values of `CC(C)COc1ncc(C(=O)N2CCCC2CC(C)O)cc1Cl` (centres undefined) are -10% and 1.22.
`Cc1nn(Cc2ccccc2)c(C)c1[C@@H]1C=C[C@@H](NC(=O)c2ccc(F)c(Cl)c2)C1`: the “% Inhibition” value was -11% and the Z score is recorded as 1.68.
Regarding `CC[C@@](C)(CNC(=O)c1ccncc1F)NC(=O)c1ccncc1F`, the “% Inhibition” value is listed as 1% and the Z score is reported as -0.08.
In the same order, the values of `Cc1ccn(Cc2nc(-c3ccco3)no2)c(=O)c1C#N` are 27% and -3.66.
Turning to `Cn1cccc1C(=O)N1CC[C@H](Oc2cc(N3CCOCC3)ncn2)C1`, the “% Inhibition” value is listed as -6% and the Z score was 0.71.
In the same order, the values of `Cn1ccnc1C(=O)NCc1nc(Cc2cccs2)no1` are -2% and 0.39.
For `CCc1nc2cc(NC(C)=O)cc(C(=O)O)c2n1Cc1cccnc1`, the “% Inhibition” value is recorded as -9% and the Z score is on record as 1.61.
As to `CC(C)N(CCN(C)C)C(=O)Cn1ccc(C(F)(F)F)n1`, the “% Inhibition” value was -16% and the Z score amounted to 3.11.

Source of the values: ChEMBL document CHEMBL4888484, “Replenishing the malaria drug discovery pipeline: Screening and hit evaluation of the MMV Hit Generation Library 1 (HGL1) against asexual blood stage Plasmodium falciparum ,using a nano luciferase reporter read-out” (2022).
